Results from article PMC4336329 (PLoS ONE, 2015).
Screen size: about 310,000 compounds; about 14,000 (4.5%) showed an effect of 50% or more. Effects have a minus sign here. This is one part of the list.

molecular target: human ether-à-go-go-related gene (hERG) potassium channel (human, UniProt Q12809); experiment: primary screen, population patch clamp on CHO cells stably expressing hERG
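Further: peak tail current of the secondary pulse compared with the same well before compound.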

human ether-à-go-go-related gene (hERG) potassium channel, sequence (Q12809 whole entry, looked up): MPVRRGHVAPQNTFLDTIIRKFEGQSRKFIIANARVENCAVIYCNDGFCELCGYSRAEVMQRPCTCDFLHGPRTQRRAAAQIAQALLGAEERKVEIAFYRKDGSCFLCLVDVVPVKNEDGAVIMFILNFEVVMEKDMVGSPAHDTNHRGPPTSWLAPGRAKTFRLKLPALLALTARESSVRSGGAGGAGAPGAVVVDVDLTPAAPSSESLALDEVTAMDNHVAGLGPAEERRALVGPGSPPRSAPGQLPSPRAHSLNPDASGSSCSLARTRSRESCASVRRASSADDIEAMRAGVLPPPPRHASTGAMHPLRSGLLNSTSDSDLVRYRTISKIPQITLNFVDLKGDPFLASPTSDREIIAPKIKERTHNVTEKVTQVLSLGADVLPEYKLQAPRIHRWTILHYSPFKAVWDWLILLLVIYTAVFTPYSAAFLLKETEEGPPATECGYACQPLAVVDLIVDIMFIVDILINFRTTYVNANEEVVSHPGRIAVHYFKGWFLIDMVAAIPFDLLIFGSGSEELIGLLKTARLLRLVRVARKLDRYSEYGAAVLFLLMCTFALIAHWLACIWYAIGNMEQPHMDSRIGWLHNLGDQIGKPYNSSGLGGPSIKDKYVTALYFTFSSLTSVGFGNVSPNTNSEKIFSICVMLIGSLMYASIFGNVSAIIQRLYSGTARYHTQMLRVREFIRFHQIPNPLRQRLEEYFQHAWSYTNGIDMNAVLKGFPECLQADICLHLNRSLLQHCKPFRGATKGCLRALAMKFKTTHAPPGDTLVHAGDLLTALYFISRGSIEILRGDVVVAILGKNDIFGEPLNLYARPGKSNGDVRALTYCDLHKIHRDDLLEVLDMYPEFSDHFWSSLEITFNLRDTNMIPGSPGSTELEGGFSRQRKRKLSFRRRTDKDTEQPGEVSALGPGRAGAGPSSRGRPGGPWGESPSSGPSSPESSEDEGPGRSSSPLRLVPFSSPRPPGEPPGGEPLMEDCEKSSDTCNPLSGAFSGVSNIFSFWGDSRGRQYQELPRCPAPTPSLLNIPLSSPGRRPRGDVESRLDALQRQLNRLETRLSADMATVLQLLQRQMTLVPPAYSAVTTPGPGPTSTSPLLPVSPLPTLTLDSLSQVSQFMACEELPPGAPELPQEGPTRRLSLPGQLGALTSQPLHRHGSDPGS

Row | SMILES | hERG current change (%, negative = inhibition) at 10uM
1 | Cc1cc(Nc2ccc(Cl)cc2)nc(NCc2ccccc2)n1 | -2.44%
2 | O=C(CS(=O)(=O)c1ccc(Br)cc1)N1CCOCC1 | 15.1%
3 | COc1cccc(-c2[nH]nc3c2C(c2ccc(C)o2)C(C#N)=C(N)O3)c1 (stereo not drawn) | -7.33%
4 | COc1ccccc1N(CC(=O)N/N=C(\C)c1ccc(F)cc1)S(=O)(=O)c1ccccc1 | 27.8%
5 | O=C(c1ccc(Cl)c(S(=O)(=O)N2CCCCC2)c1)N1CCCC1 | -7.02%
6 | O=C(Nc1cccc(C(=O)N2CCOCC2)c1)NC1CCCCC1 | -2.64%
7 | COc1cc(OC)c(NC(=O)c2cncn2-c2ccc(F)cc2)cc1Cl | -19.7%
8 | O=C(NC1CCCc2ccccc21)c1ccccn1 (stereo not drawn) | 7.04%
9 | COC(=O)c1ccc(NC(=S)NC2CC(C)(C)NC(C)(C)C2)cc1 | 16.1%
10 | CC(C)c1ccc(/C=c2\sc3nc(-c4ccncc4)nn3c2=O)cc1 | 6.39%
11 | CCc1nc2sccc2c(=O)n1N | 30.1%
12 | Cc1nn(Cc2ccc(F)cc2)c(C)c1NC(=O)c1cc(-c2ccc3c(c2)OCO3)on1 | -12.3%
13 | COc1ccccc1C/C(N)=N/OC(=O)COc1cccc(C)c1 | 6.87%
14 | O=C(CCl)N(CCc1ccccc1)CCc1ccccc1 | -1.08%
15 | CCSc1nsc(NC(=O)Nc2ccc(F)cc2F)n1 | 24.1%
16 | Cc1c(NC(=O)NC2CCCCC2)cccc1[N+](=O)[O-] | 26.5%
17 | O=C(Nc1ccccc1-c1nnn(CC(=O)N2CCOCC2)n1)c1ccc(F)cc1 | -8.67%
18 | Cc1ccc(-c2nc(-c3ccncc3)no2)c(C)c1 | 14.9%
19 | CCOC(=O)c1ccc(N2CCOCC2)c(NC(=O)COCC(=O)O)c1 | -2.92%
20 | OC1(CNCc2cn[nH]c2-c2cc3ccccc3o2)CCCCC1 | -28.7%
21 | CCc1ccc(CNCc2ccc(F)cc2)cc1 | -21%
22 | CN(C)S(=O)(=O)c1ccc(NC(=O)c2ccccn2)cc1 | 19.7%
23 | Cc1ccc(-n2nc3c(c2NC(=O)c2cccs2)CS(=O)(=O)C3)cc1 | -12.5%

Row | SMILES | hERG current change (%, negative = inhibition) at 10uM
24 | CC(=O)Nc1ccc(C(=O)OCC(=O)c2ccc(F)cc2)cc1 | 4.26%
25 | CC1CCN(C2CCN(S(=O)(=O)c3ccc(F)cc3)CC2)CC1.O=C(O)C(=O)O | -31.7%
26 | CCNCc1ccccc1OCc1ccccc1.Cl | -3.77%
27 | Cc1ccccc1CSc1nnc([C@@H]2CCCN2)o1.Cl | 5.98%
28 | COc1ccc(OC(=O)c2cn(C)nc2C(F)(F)F)cc1 | -1.05%
29 | Cc1ccc2cc(C#N)c(NCCCNC(=O)C3CCCO3)nc2c1 (stereo not drawn) | -11.8%
30 | Cc1ccc(/C=N/NC(=S)NCCc2ccccc2)s1 | 27.9%
31 | CC(=O)OC(C)(C)C#CCN1CCCC1 | 5%
32 | COc1cccc2oc3ccc(C#CC4(N)CCCCC4)cc3c(=O)c12 | -12.2%
33 | O=C(O)C(NS(=O)(=O)c1cccc2nsnc12)c1ccccc1 (stereo not drawn) | 16.1%
34 | Cc1ncc([N+](=O)[O-])n1Cc1cccc(F)c1 | 9.6%
35 | Cc1c(-n2cc(C(=O)c3cc(Br)ccc3O)cc(C#N)c2=O)c(=O)n(-c2ccccc2)n1C | -22.6%
36 | CC1CCCCN1S(=O)(=O)c1ccc(C(=O)N(CCCN(C)C)c2nc3ccc(Br)cc3s2)cc1.Cl (stereo not drawn) | -37%
37 | CCOc1ccc(NC(=O)c2ccc3nccnc3c2)cc1 | 13.6%
38 | CCOC(=O)c1c(C)nc(-c2ccccc2)nc1NC(=O)CC | 1.29%
39 | CCN(C(=O)COC(=O)CCc1ccccc1OC)c1c(N)n(Cc2ccccc2)c(=O)[nH]c1=O | -4.73%
40 | CCOc1ccc(-c2nnn(CC(=O)NCc3ccco3)n2)cc1 | -14.4%
41 | COc1ccc(-c2csc3nc[nH]c(=O)c23)cc1 | -39.5%
42 | COc1ccc(OC)c(S(=O)(=O)NCCc2ccccc2)c1 | -5.48%
43 | COC(=O)c1cc(S(=O)(=O)NCC2CCN(Cc3ccc(F)cc3)CC2)c[nH]1 | -57%
44 | COCCCN1C(=O)c2ccc(C(=O)Nc3ccccc3OC)cc2C1=O | -17.3%
45 | Cc1c(NC(=O)C(C)SC(=S)N2CCCC2)c(=O)n(-c2ccccc2)n1C (stereo not drawn) | 24.8%
